# Assay results reported in PubChem BioAssay AID686979 (National Center for Advancing Translational Sciences (NCATS), 2013).
# Screen size: about 420,000 compounds; about 50,000 (12%) were called active. The inconclusive results got no clear call from the source; some entries with a clear call stand among them for comparison. The call rests on the fitted dose curve; in most records, active means well fitted inhibition curve with a large enough effect; inconclusive means small, poorly fitted or top-dose-only effect; inactive means flat fitted curve, though single readings scatter. No potency is given beside an inconclusive call; the fits are too rough.
# Assay: qHTS for Inhibitors of human tyrosyl-DNA phosphodiesterase 1 (TDP1): qHTS in cells in presence of CPT; further: nearly all actives have a fitted effect of over 55% in size
# Conditions: chicken DT40 Tdp1-/-;hTDP1 cells + 20 nM CPT, ATP luminescence, 48 h; activity change, negative = growth inhibition: at 46.2 µM (top of the series) unless noted
# Procedure, shortened: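 Chicken DT40 Tdp1-/- cells stably complemented with human TDP1 were seeded at 400 cells/well in medium containing 20 nM camptothecin, exposed to pin-transferred compounds, and grown at 37 °C for at least 48 hr. Viability was read as ATP luminescence.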
# On the % scale 0 is the no-effect control and ±100 the full control effect; potency means the concentration at half of the fitted maximal effect; tags describe the fitted curve by direction and shape.
SMILES,Potency,"activity change, negative = growth inhibition"
CCN(CC(=O)Nc1c(F)cccc1F)C(=O)CSc1nnc(-c2ccco2)n1CC,inactive,
COc1ccc(N(C)C(=O)c2ccc3nc(-c4ccccc4)c(-c4ccccc4)nc3c2)cc1,"inconclusive [inhibitor, single point]",
Cc1ccc(NC(=O)Cn2cc(C(=O)c3ccco3)c3ccccc32)cc1C,"inconclusive [inhibitor, single point]",
Cc1onc(-c2c(Cl)cccc2Cl)c1C(=O)c1ccccc1,active: 23.1 µM,
O=C(N/N=C/c1cccnc1)c1ccc(Cn2cc([N+](=O)[O-])cn2)o1,inactive,
CCn1cc(/C=N\NC(=O)Cc2ccc(Cl)cc2)cn1,inactive,
CCC1CCCCN1Cc1c(O)ccc2c(=O)c(-c3ccccc3)coc12 (centres undefined),active: 7.31 µM,
Cc1cc(Oc2ccc(Cl)cc2)nc(SCC(=O)c2ccccc2)n1,active: 23.1 µM,
CCOc1ccc(N(C(=O)CNC(=O)c2ccco2)C(C(=O)NC2CCCC2)c2ccco2)cc1 (centres undefined),inactive,
O=C1NC(=O)c2cc(Nc3ccccc3)c(Nc3ccccc3)cc21,"inconclusive [inhibitor, single point]",
CCOc1ccc(NS(=O)(=O)c2ccc(C(=O)NCC3(N(C)C)CCCCC3)cc2)cc1,"inconclusive [inhibitor, single point]",
Cc1ccc(NC(=O)CN(C)CCOc2ccccc2)c([N+](=O)[O-])c1,,inconclusive: -30.6% [inhibitor]
CCN(CC)S(=O)(=O)c1cc(NC(=O)C2CCN(c3ncnc4sc(C)c(C)c34)CC2)ccc1Cl,active: 14.6 µM,
CC(C)CCN1C(Nc2ccccc2)=NC[C@@H]1Cc1ccccc1,"inconclusive [inhibitor, single point]",
CC(C)(C)NC(=O)C(C1CC1)n1c(-c2ccccc2)nc2ccccc21 (centres undefined),active: 10.3 µM,
Cc1cc2oc(C(=O)Nc3ccc(S(=O)(=O)N4CCC(C)CC4)cc3)cc(=O)c2cc1C,inactive,
CN(O)/C=N/C(=S)Nc1ccc(Cl)cc1Cl,"inconclusive [inhibitor, single point]",
Cc1ccc(-n2nc3c(N4CCC(C(=O)NC5CCCCC5)CC4)nnc(C)c3c2C)cc1,"inconclusive [inhibitor, single point]",
CC(OC(=O)c1cccc(-n2cnnn2)c1)C(=O)Nc1ccc(F)c(F)c1F (centres undefined),"inconclusive [inhibitor, partial curve]",
CC(=O)O[C@@H]1C[C@H]2C(C)(C)C(=O)C=C[C@]2(C)[C@H]2CC[C@@]3(C)[C@H](c4ccoc4)OC(=O)[C@H]4O[C@]43[C@@]21C,"inconclusive [inhibitor, single point]",
OCCNc1nc(Nc2ccccc2)nc(Nc2ccccc2)n1,"inconclusive [inhibitor, single point]",
Cc1ccc(Cn2c(-n3nc(C)cc3C)nc3c2c(=O)[nH]c(=O)n3C)cc1,"inconclusive [inhibitor, partial curve, poor fit]",

SMILES,Potency,"activity change, negative = growth inhibition"
CC(C)C[C@H]1CNC(=S)N1C[C@H]1CCCN1C[C@H](Cc1ccc(O)cc1)N1C[C@H](Cc2ccc(O)cc2)N(CC2CCCCCC2)C1=S,active: 4.61 µM,
C=CCn1c(O)c(CN2CCOCC2)c(C)c(C#N)c1=O,"inconclusive [inhibitor, single point]",
CCOC(=O)c1cc(-c2ccccc2)nc2c1c(C)nn2-c1ccccn1,"inconclusive [inhibitor, single point]",
O=C(CSCc1ccc(Cl)cc1)Nc1ccc(S(=O)(=O)N2CCOCC2)cc1,"inconclusive [inhibitor, partial curve, poor fit]",
Cc1cc(NC(=O)c2cnn3cccnc23)n(-c2ccccc2)n1,"inconclusive [inhibitor, single point]",
COc1cccc(NC(=S)NC(Cc2ccccc2)c2ccccc2)c1 (centres undefined),"inconclusive [inhibitor, single point]",
COc1ccc(-c2ccc(CNCCCSc3nnnn3C)o2)cc1Cl,"inconclusive [inhibitor, single point]",
C=CCN(CC=C)S(=O)(=O)c1ccc(NC(=S)NC(=O)/C=C/c2ccc(C)cc2)cc1,"inconclusive [inhibitor, single point]",
CC(C)Cc1ccc(S(=O)(=O)NCc2nc3cccnc3n2Cc2ccccc2)cc1,"inconclusive [inhibitor, single point]",
COc1cc(Br)c(/C=C/c2ccc3cccc(O)c3n2)cc1OC,active: 11.6 µM,
CCCCCOc1ccccc1CN1C(=O)C(=O)c2cc(C)ccc21,active: 13 µM,
O=C(NCc1cccnc1)C1CCCCN1S(=O)(=O)c1ccc(F)cc1 (centres undefined),inactive,
Cn1c(-c2ccncc2)nc2ccccc21,inactive,
Cc1ccc(OCC(=O)N/N=C/c2cc([N+](=O)[O-])ccc2N2CCCCC2)cc1,"inconclusive [inhibitor, single point]",
COc1ccc(NC(=O)CC2C(=O)OCC3CCCCN32)cc1Cl (centres undefined),inactive,
c1cncc(-c2nc(N3CCOCC3)c3c4c(sc3n2)CCC4)c1,"inconclusive [inhibitor, partial curve]",
COc1ccc(OC)c(-c2csc(NC(=O)CSc3ccc([N+](=O)[O-])cc3)n2)c1,"inconclusive [inhibitor, single point]",
O=C(CCl)N(O)c1ccc(C=Cc2ccccc2)cc1,active: 0.13 µM,
CCCn1c(=S)[nH]c2cc(C(=O)N3CCN(C)CC3)ccc2c1=O,inactive,
O=C(CSc1ccc2nnc(-c3ccccc3)n2n1)NCc1ccc2c(c1)OCO2,"inconclusive [inhibitor, full curve]",
COc1ccc(NC(=O)Nc2cc3oc4ccccc4c3cc2OC)cc1,"inconclusive [inhibitor, single point]",
COc1ccc(NC(=O)c2c(NCc3ccc(OC)c(OC)c3OC)sc3c2CCC3)c(OC)c1,active: 13 µM,
